Assay results from paper PMC4336329 (PLoS ONE, 2015).
Hit rate of the full screen: of about 310,000 compounds, about 14,000 (4.5%) showed an effect of 50% or more. The effect is printed as a negative number. The list shows a part of the results.

molecular target: human ether-à-go-go-related gene (hERG) potassium channel (human, UniProt Q12809); assay: primary screen, population patch clamp on CHO cells stably expressing hERG
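Note: peak tail current of the secondary pulse compared with the same well before compound.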

Sequence of human ether-à-go-go-related gene (hERG) potassium channel (Q12809 whole entry, looked up): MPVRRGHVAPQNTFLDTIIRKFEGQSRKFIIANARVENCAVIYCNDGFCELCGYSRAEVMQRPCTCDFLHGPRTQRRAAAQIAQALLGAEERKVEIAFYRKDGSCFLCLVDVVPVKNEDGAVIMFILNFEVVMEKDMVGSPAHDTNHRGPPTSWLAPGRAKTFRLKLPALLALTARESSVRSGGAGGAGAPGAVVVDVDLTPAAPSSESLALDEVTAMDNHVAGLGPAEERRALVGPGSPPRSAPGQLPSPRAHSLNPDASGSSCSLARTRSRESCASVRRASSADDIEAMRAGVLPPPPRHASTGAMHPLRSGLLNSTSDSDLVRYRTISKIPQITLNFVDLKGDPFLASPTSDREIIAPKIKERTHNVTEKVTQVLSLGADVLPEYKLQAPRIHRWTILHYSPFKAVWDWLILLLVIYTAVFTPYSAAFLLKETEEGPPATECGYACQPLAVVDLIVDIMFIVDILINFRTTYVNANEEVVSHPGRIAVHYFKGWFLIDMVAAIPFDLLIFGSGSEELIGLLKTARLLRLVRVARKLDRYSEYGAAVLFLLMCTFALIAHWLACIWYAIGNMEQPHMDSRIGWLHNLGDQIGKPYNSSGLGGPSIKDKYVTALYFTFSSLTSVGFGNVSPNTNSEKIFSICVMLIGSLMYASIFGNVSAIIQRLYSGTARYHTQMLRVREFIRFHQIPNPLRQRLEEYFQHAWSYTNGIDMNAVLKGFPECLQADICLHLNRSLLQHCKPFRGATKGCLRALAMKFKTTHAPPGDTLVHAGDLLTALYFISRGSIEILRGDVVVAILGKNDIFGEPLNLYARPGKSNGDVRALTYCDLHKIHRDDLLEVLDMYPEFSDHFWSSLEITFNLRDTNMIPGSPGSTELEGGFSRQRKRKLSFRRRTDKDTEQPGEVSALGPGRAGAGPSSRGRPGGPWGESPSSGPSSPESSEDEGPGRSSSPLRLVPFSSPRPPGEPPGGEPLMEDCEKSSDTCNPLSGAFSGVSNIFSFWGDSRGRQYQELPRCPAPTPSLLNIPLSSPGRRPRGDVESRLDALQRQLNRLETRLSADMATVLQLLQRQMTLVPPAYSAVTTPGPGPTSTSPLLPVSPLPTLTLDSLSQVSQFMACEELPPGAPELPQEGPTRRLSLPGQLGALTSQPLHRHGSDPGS

Row | SMILES | hERG current change (%, negative = inhibition) at 10uM [%]
1 | COCCn1c(N)c(Sc2ccc(Cl)cc2)c(=O)[nH]c1=O | 6.8
2 | CC(C)c1ccc(NC2CCCN(C(=O)c3cccs3)C2)cc1 (stereo not shown) | -10.8
3 | CCN1C(=O)c2ccc(C(=O)O)cc2C1=O | 9.2
4 | Cc1cc(C(=O)COC(=O)c2ccc(CO)cc2)c(C)n1CC1COc2ccccc2O1 (stereo not shown) | -0.0441
5 | Cc1ccc(NC(=O)CCC(=O)c2ccc(Cl)s2)nc1 | 11.7
6 | O=C(Cn1nnc2ccccc2c1=O)Nc1ccc(S(=O)(=O)N2CCOCC2)cc1 | -0.303
7 | CN1C(=O)C2C=CC1C1C(=O)N(c3ccccc3)C(=O)C21 (stereo not shown) | 11.5
8 | O=C(c1ccc(N2CCOCC2)c([N+](=O)[O-])c1)N1CCN(S(=O)(=O)c2cccs2)CC1 | -47.3
9 | COc1ccccc1S(=O)(=O)Cc1ccc(C(=O)NC2CCCCC2)o1 | -6.75
10 | CC(C)CC(NC(N)=O)C(=O)Nc1ccc(Cl)c(Cl)c1 (stereo not shown) | 2.84
11 | O=c1[nH]c2cc([N+](=O)[O-])c(NCCO)c([N+](=O)[O-])c2[nH]1 | 30.2
12 | O=C(C1CCN(S(=O)(=O)c2cccnc2)CC1)N1CCN(c2ccc(Cl)cc2)CC1 | -56.2
13 | O=C(NCCNS(=O)(=O)c1ccccc1Cl)c1cc(OCC(F)(F)F)ccc1OCC(F)(F)F | -4.88
14 | COc1ccc2[nH]c(=O)c(CN(Cc3cccs3)C(=S)Nc3cccc(C)c3)cc2c1 | 6.6
15 | CC(NC(=O)CN1CCC(C(N)=O)CC1)c1ccccc1 (stereo not shown) | 20.6
16 | N#Cc1cc(Nc2c(N)nc[nH]c2=O)c([N+](=O)[O-])cc1C#N | 8.95
17 | COc1ccc(-c2csc(NC(=O)CN3C(=O)CCC3=O)n2)cc1 | -11
18 | Cc1ccc(-c2csc(NCCc3nc4cc(Cl)c(Cl)cc4n3CCOCCO)n2)cc1 | 5.05
19 | COC(=O)c1sccc1NC(=O)COc1ccc(F)cc1Cl | -0.106
20 | O=c1cc(CNc2cc(C(F)(F)F)cc(C(F)(F)F)c2)nc2sccn12 | -6.36
21 | CC(C)CNc1nc(SCC(=O)Nc2ccccc2)nc(N2CCOCC2)n1 | -4.05
22 | C=Cc1ccc(Cn2c(=O)n(CCCOC)c(=O)c3sccc32)cc1 | -4.14
23 | O=c1c2cnn(-c3ccccc3)c2nc(-c2ccco2)n1-c1ccccc1 | -5.61
24 | O=C(c1ccccc1)N(NC(=O)C(O)(c1ccccc1)c1ccccc1)c1cccc(F)c1 | 1.41
25 | Cc1ccc2c(c1)S/C(=C/c1ccc[n+](C)c1)N2CCO.[I-] | -4.88
26 | Cc1ccc2cc(CN(CC3CCCO3)C(=S)Nc3ccccc3)c(=O)[nH]c2c1C (stereo not shown) | 0.744
27 | Cc1cccc(OCC(=O)Nc2ccccc2N2CCCCC2)c1C | -21.9
28 | Cc1[nH]c(C)c(S(=O)(=O)N(C)Cc2ccccc2)c1C(=O)N1CCCC1 | 15.2

Row | SMILES | hERG current change (%, negative = inhibition) at 10uM [%]
29 | CCC(=O)N1CCc2cc(S(=O)(=O)CCC(=O)NCc3ccc4c(c3)OCO4)ccc21 | 0.659
30 | CN(C)c1ccc(NC(=O)CSc2n[nH]c(-c3ccco3)n2)cc1 | 4.82
31 | Cc1c(NS(=O)(=O)c2ccc(F)cc2)c(=O)n(-c2ccccc2)n1C | 13
32 | COc1ccc(Sc2ccc(/C=C3\C(=O)NN(c4ccccc4)C3=O)o2)cc1 | 7.52
33 | O=C(NCCc1ccccc1)C1CCN(C2CCN(Cc3ccco3)CC2)CC1 | -62.7
34 | CCn1nc(C)c(CNCc2cn[nH]c2-c2cc3ccccc3o2)c1C | -19
35 | O=C(O)c1ccc(N/C(=N\S(=O)(=O)c2ccc(Cl)cc2)c2ccccc2)cc1 | -1.75
36 | CCCOc1ccc(-c2nnc(-c3ccco3)o2)cc1 | 2.1
37 | Cc1ccc(C(=O)N(C)CC(=O)Nc2cccc(C)c2C)o1 | 9.83
38 | COc1ccccc1CN1[C@@H](CC(C)=O)c2cc(C(F)(F)F)ccc2S1(=O)=O | -8.05
39 | CCOC(=O)C1(CC2CCCCO2)CCN(Cc2nccn2-c2cccc(C)c2)CC1 (stereo not shown) | 13.2
40 | C=CCNC(=S)NNC(=O)c1csc(C)c1CC | 0.462
41 | C/C(CC(=O)NCc1ccco1)=N\NC(=O)Cc1ccccc1 | 19.6
42 | Cc1noc(C)c1COc1ccc(C(=O)O)cc1 | 17.1
43 | Cc1nn(-c2ccccc2)c(C)c1NC(=O)COC(=O)C1CC(=O)N(CCc2ccccc2)C1 (stereo not shown) | 9.52
44 | CCc1ccc(N(CC(=O)Nc2nc3ccc(C)cc3s2)S(=O)(=O)c2c(C)noc2C)cc1 | 7.28
45 | COc1ccc(CN2CCOCCOCCOCCOCCOCC2)cc1 | -20.7
46 | Cc1onc(-c2c(Cl)cccc2Cl)c1C(=O)N1CCSCC1 | -5.76
47 | CC(C)[C@H](NC(N)=O)C(=O)NNC(=O)COc1cccc(C(F)(F)F)c1 | 7.71
48 | CCOC(=O)c1sc(=NC(=O)C2CC2)n(C)c1C | 10.2
49 | Cc1cccc(NC2=CC(=O)CC(C)(C)C2)c1C | 4.17
50 | O=S1(=O)NC(c2ccccc2)CC(CC2CCCCC2)O1 (stereo not shown) | -13.2
51 | CCOC(=O)C1=C(O)/C(=C/c2ccc(OCC(=O)O)c(OC)c2)SC1=Nc1ccc(OCC)cc1 | 9.86
52 | COc1cc(OC)cc(C(=O)OCC(=O)NC(C)CCc2ccccc2)c1 (stereo not shown) | 28.4
53 | CCCc1cc(N2CCOCC2)n2ncc(-c3ccccc3)c2n1 | 14.4
54 | CC(C)c1ccc(CNC(=O)C(=O)NCC2CCCO2)cc1 (stereo not shown) | 7.73
55 | CCN(c1ccccc1)S(=O)(=O)c1ccc2[nH]c(=O)[nH]c2c1 | -0.668
